Measurements: patent US10299477B2 (priority 2015, dated 2019)

Each molecule was assayed on Colletotrichum orbiculare. Conditions: in vivo.
With `CCn1c(-c2c(F)cccc2F)c(-c2cc(OC)cc(OC)c2Cl)ccc1=O` [Compound 32] the “Test H control value” was “H (key: H shows more than 50% of control values; L shows 50% or less of control values)”.
With `CCn1c(-c2c(F)cccc2F)c(-c2cc(OC)ccc2Cl)cc(Cl)c1=O` [Compound 54, 3-chloro-5-(2-chloro-5-methoxyphenyl)-6-(2,6-difluorophenyl)-1-ethylpyridine-2(1H)-one] the “Test H control value” was “H (key: H shows more than 50% of control values; L shows 50% or less of control values)”.
In the case of `CCn1c(-c2c(F)cccc2F)c(-c2cc(OCOC)ccc2Cl)ccc1=O` [Compound 97, 5-(2-chloro-5-(methoxymethoxy)phenyl)-6-(2,6-difluorophenyl)-1-ethylpyridine-2(1H)-one], the “Test H control value” is reported as “H (key: H shows more than 50% of control values; L shows 50% or less of control values)”.
`CCn1c(-c2c(F)cccc2F)c(-c2cc(OCC#N)ccc2Cl)ccc1=O` [Compound 98] was tested, and the “Test H control value” was “H (key: H shows more than 50% of control values; L shows 50% or less of control values)”.
For `CCOc1ccc(Cl)c(-c2ccc(=O)n(CC)c2-c2c(F)cccc2F)c1` [Compound 99], the “Test H control value” was “H (key: H shows more than 50% of control values; L shows 50% or less of control values)”.
For `COc1cc(OC)c(Cl)c(-c2ccc(=O)n(C)c2-c2c(F)cc(F)cc2F)c1` [Compound 136, 5-(2-chloro-3,5-dimethoxyphenyl)-1-methyl-6-(2,4,6-trifluorophenyl)pyridine-2(1H)-one], the “Test H control value” was “H (key: H shows more than 50% of control values; L shows 50% or less of control values)”.
For `Cn1c(-c2c(F)cccc2F)c(-c2ccccc2F)ccc1=O` [Compound 143], the “Test H control value” was “H (key: H shows more than 50% of control values; L shows 50% or less of control values)”.
`Cn1c(-c2c(F)cccc2F)c(-c2ccccc2F)cc(Cl)c1=O` [Compound 144] was tested, and the “Test H control value” was “H (key: H shows more than 50% of control values; L shows 50% or less of control values)”.
In the case of `Cn1c(-c2c(F)cccc2F)c(-c2ccccc2F)cc(Br)c1=O` [Compound 145], the “Test H control value” is reported as “H (key: H shows more than 50% of control values; L shows 50% or less of control values)”.
With `CCn1c(-c2c(F)cccc2F)c(-c2ccccc2C(F)(F)F)ccc1=O` [Compound 146] the “Test H control value” was “L (key: H shows more than 50% of control values; L shows 50% or less of control values)”.
With `CCn1c(-c2c(F)cccc2F)c(-c2ccccc2C(F)(F)F)cc(Cl)c1=O` [Compound 147] the “Test H control value” was “L (key: H shows more than 50% of control values; L shows 50% or less of control values)”.
For `CCn1c(-c2c(F)cccc2F)c(-c2ccccc2C(F)(F)F)cc(Br)c1=O` [Compound 148], the “Test H control value” was “L (key: H shows more than 50% of control values; L shows 50% or less of control values)”.
`CCn1c(-c2c(F)cccc2Cl)c(-c2cc(OC)cc(OC)c2Cl)ccc1=O` [Compound 152] was tested, and the “Test H control value” was “H (key: H shows more than 50% of control values; L shows 50% or less of control values)”.
`CCn1c(-c2c(F)cccc2F)c(-c2cccc(F)c2)ccc1=O` [Compound 153] was tested, and the “Test H control value” was “H (key: H shows more than 50% of control values; L shows 50% or less of control values)”.
`CCn1c(-c2c(F)cccc2F)c(-c2cccc(F)c2)cc(Cl)c1=O` [Compound 154] was tested, and the “Test H control value” was “L (key: H shows more than 50% of control values; L shows 50% or less of control values)”.
`CCn1c(-c2c(F)cccc2F)c(-c2cccc(F)c2)cc(Br)c1=O` [Compound 155] was tested, and the “Test H control value” was “L (key: H shows more than 50% of control values; L shows 50% or less of control values)”.
In the case of `CCN1C(=O)CCC(c2cccc(F)c2)=C1c1c(F)cccc1F` [Compound 156], the “Test H control value” is reported as “H (key: H shows more than 50% of control values; L shows 50% or less of control values)”.
With `Cn1c(-c2c(F)cccc2F)c(-c2ccccc2C(F)(F)F)ccc1=O` [Compound 157] the “Test H control value” was “H (key: H shows more than 50% of control values; L shows 50% or less of control values)”.
With `Cn1c(-c2c(F)cccc2F)c(-c2ccccc2C(F)(F)F)cc(Br)c1=O` [Compound 159] the “Test H control value” was “L (key: H shows more than 50% of control values; L shows 50% or less of control values)”.
With `CCn1c(-c2c(F)cccc2F)c(-c2ccccc2C)ccc1=O` [Compound 160] the “Test H control value” was “H (key: H shows more than 50% of control values; L shows 50% or less of control values)”.
For `CCn1c(-c2c(F)cccc2F)c(-c2ccccc2C)cc(Cl)c1=O` [Compound 161], the “Test H control value” was “L (key: H shows more than 50% of control values; L shows 50% or less of control values)”.
With `CCn1c(-c2c(F)cccc2F)c(-c2ccccc2C)cc(Br)c1=O` [Compound 162] the “Test H control value” was “L (key: H shows more than 50% of control values; L shows 50% or less of control values)”.
In the case of `COc1cc(OC)cc(C2=C(c3c(F)cccc3Cl)N(C)C(=O)CC2)c1` [Compound 163], the “Test H control value” is reported as “L (key: H shows more than 50% of control values; L shows 50% or less of control values)”.
`COc1cc(OC)cc(-c2ccc(=O)n(C)c2-c2c(F)cccc2Cl)c1` [Compound 164] was tested, and the “Test H control value” was “H (key: H shows more than 50% of control values; L shows 50% or less of control values)”.
With `COc1cc(OC)c(Cl)c(-c2ccc(=O)n(C)c2-c2c(F)cccc2Cl)c1` [Compound 166] the “Test H control value” was “H (key: H shows more than 50% of control values; L shows 50% or less of control values)”.
In the case of `CCn1c(-c2c(F)cccc2Cl)c(-c2c(Cl)c(OC)cc(OC)c2Cl)cc(Cl)c1=O` [Compound 167], the “Test H control value” is reported as “L (key: H shows more than 50% of control values; L shows 50% or less of control values)”.
`Cn1c(-c2c(F)cccc2F)c(-c2cccc(F)c2)cc(Cl)c1=O` [Compound 169] was tested, and the “Test H control value” was “H (key: H shows more than 50% of control values; L shows 50% or less of control values)”.
For `Cn1c(-c2c(F)cccc2F)c(-c2cccc(F)c2)cc(Br)c1=O` [Compound 170], the “Test H control value” was “H (key: H shows more than 50% of control values; L shows 50% or less of control values)”.
In the case of `CCn1c(-c2c(F)cccc2F)c(-c2cccc(Cl)c2)ccc1=O` [Compound 171], the “Test H control value” is reported as “H (key: H shows more than 50% of control values; L shows 50% or less of control values)”.
For `CN1C(=O)CCC(c2cccc(F)c2)=C1c1c(F)cccc1F` [Compound 172], the “Test H control value” was “L (key: H shows more than 50% of control values; L shows 50% or less of control values)”.
`CCN1C(=O)CCC(c2cc(OC)cc(OC)c2)=C1c1c(F)cccc1Br` [Compound 174] was tested, and the “Test H control value” was “L (key: H shows more than 50% of control values; L shows 50% or less of control values)”.
With `CCn1c(-c2c(F)cccc2Br)c(-c2cc(OC)cc(OC)c2)ccc1=O` [Compound 175] the “Test H control value” was “H (key: H shows more than 50% of control values; L shows 50% or less of control values)”.
In the case of `CCn1c(-c2c(F)cccc2Br)c(-c2cc(OC)cc(OC)c2Br)ccc1=O` [Compound 176], the “Test H control value” is reported as “H (key: H shows more than 50% of control values; L shows 50% or less of control values)”.
`CCn1c(-c2c(F)cccc2Br)c(-c2cc(OC)cc(OC)c2Cl)ccc1=O` [Compound 177] was tested, and the “Test H control value” was “H (key: H shows more than 50% of control values; L shows 50% or less of control values)”.
With `CCn1c(-c2c(F)cccc2F)c(-c2cccc(Cl)c2)cc(Cl)c1=O` [Compound 178] the “Test H control value” was “L (key: H shows more than 50% of control values; L shows 50% or less of control values)”.
With `CCn1c(-c2c(F)cccc2F)c(-c2cccc(Cl)c2)cc(Br)c1=O` [Compound 179] the “Test H control value” was “L (key: H shows more than 50% of control values; L shows 50% or less of control values)”.
